Experimental data from the supplement of paper PMC4604168 (melanoma cell lines).
The list shows a part of the results. Single values are uncertain, as repeats are few or missing.

System: SkMel5
Test: cell count relative to DMSO control; melanoma cells; higher = more viable cells
Settings: library dose: standard library concentration; 72 h
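Note: cells treated in 1,536-well plates, then fixed and DAPI-stained, with nuclei counted from automated high-throughput microscope images.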

Compound	cell count [%]
CC1(C)CCC(c2ccc(Cl)cc2)=C(CN2CCN(c3ccc(C(=O)NS(=O)(=O)c4ccc(N[C@H](CCN5CCOCC5)CSc5ccccc5)c(S(=O)(=O)C(F)(F)F)c4)cc3)CC2)C1 + COc1cc(N2CCC(N3CCN(C)CC3)CC2)ccc1Nc1ncc(Cl)c(Nc2ccccc2S(=O)(=O)C(C)C)n1 [NVP-TAE684] (first compound 2 µM, partner dose 0.4 µM)	55.8
CC1(C)CCC(c2ccc(Cl)cc2)=C(CN2CCN(c3ccc(C(=O)NS(=O)(=O)c4ccc(N[C@H](CCN5CCOCC5)CSc5ccccc5)c(S(=O)(=O)C(F)(F)F)c4)cc3)CC2)C1 + Cn1cc(/C=C2\C(=O)Nc3cccnc32)c2ccccc21 [GW441756] (first compound 2 µM, partner dose 2 µM)	76
O=C(/C=C/c1cccnc1)NCCCCC1CCN(C(=O)c2ccccc2)CC1 + COc1cc2ncnc(Nc3ccc(Oc4ccccc4)cc3)c2cc1OC [SrcI1] (first compound 0.05 µM, partner dose 10 µM)	51.5
O=C(/C=C/c1cccnc1)NCCCCC1CCN(C(=O)c2ccccc2)CC1 + O=S(=O)(c1ccccc1)N(CC(F)(F)F)c1ccc(C(O)(C(F)(F)F)C(F)(F)F)cc1 [T0901317] (first compound 0.05 µM, partner dose 7 µM)	79.3
CC1(C)CCC(c2ccc(Cl)cc2)=C(CN2CCN(c3ccc(C(=O)NS(=O)(=O)c4ccc(N[C@H](CCN5CCOCC5)CSc5ccccc5)c(S(=O)(=O)C(F)(F)F)c4)cc3)CC2)C1 + COC(=O)c1sccc1S(=O)(=O)Nc1ccc(Nc2ccccc2)cc1OC [GSK0660] (first compound 2 µM, partner dose 5 µM)	87.9
CC1(C)CCC(c2ccc(Cl)cc2)=C(CN2CCN(c3ccc(C(=O)NS(=O)(=O)c4ccc(N[C@H](CCN5CCOCC5)CSc5ccccc5)c(S(=O)(=O)C(F)(F)F)c4)cc3)CC2)C1 + c1cc(-c2cnn3cc(-c4ccc(OCCN5CCCCC5)cc4)cnc23)ccn1 [Dorsomorphin] (first compound 2 µM, partner dose 2 µM)	46
Cc1ccc(Nc2nccc(N(C)c3ccc4c(C)n(C)nc4c3)n2)cc1S(N)(=O)=O [Pazopanib] + CO[C@@H]1[C@H](N(C)C(=O)c2ccccc2)C[C@H]2O[C@]1(C)n1c3ccccc3c3c4c(c5c6ccccc6n2c5c31)C(=O)NC4 [Midostaurin] (first compound 2 µM, partner dose 0.4 µM)	49.9
O=C(/C=C/c1cccnc1)NCCCCC1CCN(C(=O)c2ccccc2)CC1 + CO[C@@H]1[C@H](N(C)C(=O)c2ccccc2)C[C@H]2O[C@]1(C)n1c3ccccc3c3c4c(c5c6ccccc6n2c5c31)C(=O)NC4 [Midostaurin] (first compound 0.05 µM, partner dose 0.4 µM)	57
Cc1ccc(Nc2nccc(N(C)c3ccc4c(C)n(C)nc4c3)n2)cc1S(N)(=O)=O [Pazopanib] + Oc1nc(-c2ccc(C(F)(F)F)cc2)nc2c1CSCC2 [XAV939] (first compound 2 µM, partner dose 10 µM)	50.9
CC1(C)CCC(c2ccc(Cl)cc2)=C(CN2CCN(c3ccc(C(=O)NS(=O)(=O)c4ccc(N[C@H](CCN5CCOCC5)CSc5ccccc5)c(S(=O)(=O)C(F)(F)F)c4)cc3)CC2)C1 + Cc1ccc(Nc2nccc(N(C)c3ccc4c(C)n(C)nc4c3)n2)cc1S(N)(=O)=O [Pazopanib] (first compound 2 µM, partner dose 2 µM)	84.2
CC1(C)CCC(c2ccc(Cl)cc2)=C(CN2CCN(c3ccc(C(=O)NS(=O)(=O)c4ccc(N[C@H](CCN5CCOCC5)CSc5ccccc5)c(S(=O)(=O)C(F)(F)F)c4)cc3)CC2)C1 + CCCCCCCCCCCC1=C(O)C(=O)C=C(O)C1=O [Embelin] (first compound 2 µM, partner dose 6 µM)	65.5
Cc1ccc(Nc2nccc(N(C)c3ccc4c(C)n(C)nc4c3)n2)cc1S(N)(=O)=O [Pazopanib] + NCC(=O)Nc1ccc(-n2nc(C(F)(F)F)cc2-c2ccc3c(ccc4ccccc43)c2)cc1 [OSU03012] (first compound 2 µM, partner dose 5 µM)	68.4
O=C(/C=C/c1cccnc1)NCCCCC1CCN(C(=O)c2ccccc2)CC1 + Cn1cc(/C=C2\C(=O)Nc3cccnc32)c2ccccc21 [GW441756] (first compound 0.05 µM, partner dose 2 µM)	87.9
O=C(/C=C/c1cccnc1)NCCCCC1CCN(C(=O)c2ccccc2)CC1 + CCCCCCCCCCCC1=C(O)C(=O)C=C(O)C1=O [Embelin] (first compound 0.05 µM, partner dose 6 µM)	121
O=C(/C=C/c1cccnc1)NCCCCC1CCN(C(=O)c2ccccc2)CC1 + Cc1cc(Nc2cc(N3CCN(C)CC3)nc(/C=C/c3ccccc3)n2)n[nH]1 [ENMD2076] (first compound 0.05 µM, partner dose 0.2 µM)	85
O=C(/C=C/c1cccnc1)NCCCCC1CCN(C(=O)c2ccccc2)CC1 + COC(=O)c1sccc1S(=O)(=O)Nc1ccc(Nc2ccccc2)cc1OC [GSK0660] (first compound 0.05 µM, partner dose 5 µM)	101
